The values that follow come from paper PMC10772735, “Characterization of erythroferrone oligomerization and its impact on BMP antagonism” (The Journal of Biological Chemistry, 2023).

Sequences of proteins named here, by UniProt entry; tags and fusion partners are left off. Residues count along the entry.
UniProt P36894, residues 24-152: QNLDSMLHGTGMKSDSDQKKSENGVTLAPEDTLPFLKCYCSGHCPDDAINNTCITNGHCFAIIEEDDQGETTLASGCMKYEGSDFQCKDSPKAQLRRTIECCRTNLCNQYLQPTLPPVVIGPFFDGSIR

Numbering of substitutions follows the chain as printed. Numbers in names are those of the source. No constants are given. Whether binding was seen depends on the method and setting. Some binding calls cover weakened binding; strength is not graded here. For some of these results: Sequences can lack the tags named with a protein.

In one experiment the target is Cys∗ΔC1Q ERFE (human) (UniProt Q4G0M1). As to the kind of experiment: condition: only in SDS (non-reducing SDS-PAGE, shows only disulfide-linked species); non-reducing SDS-PAGE; purified ERFE analysed by SDS-PAGE under reducing and nonreducing conditions; shows only disulfide-linked species; both purified.
The next experiment deals with T1, BMP6 (UniProt P22004 375-513).
T1 sequence (looked up): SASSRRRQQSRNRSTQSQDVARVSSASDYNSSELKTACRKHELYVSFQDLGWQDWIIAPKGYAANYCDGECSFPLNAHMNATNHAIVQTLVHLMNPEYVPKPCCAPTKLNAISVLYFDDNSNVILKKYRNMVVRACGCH
Put plainly: SPR; BIAcore T-200; 0.45 μg/ml Alk3-Fc captured on a protein A chip (85 response units); 10 nM constant BMP6 with ERFE 160 to 5 nM flowed over at 50 μl/min, 300 s association, 900 s dissociation; controls BMP6 alone and ERFE alone at 160 nM; 20 mM Hepes pH 7.4, 350 mM NaCl, 0.005% Tween-20, 0.5 mg/ml BSA, 5 mM EDTA; both purified. (In general: Surface plasmon resonance follows binding to a sensor surface in real time, without labels.)

In experiment [1] the target is Recombinant ALK3-Fc fusion protein (UniProt P36894). The description is as above.

B1: Cys∗ΔC1Q ERFE (domain or fragment, human, UniProt Q4G0M1 44-207, looked up)
chain: PPPGNELPRGPGESRAGPAARPPEPTAERAHSVDPRDAWMLFVRQSDKGVNGKKRSRGKAKKLKFGLPGPPGPPGPQGPPGPIIPPEALLKEFQLLLKGAVRQRERAEPEPSTSGPAGPVAASLAPVSATAGEDDDDVVGDVLALLAAPLAPGPRAPRVEAAFL
notes: erythroferrone (ERFE), human, stop codon at C208, Cys155 and Cys157 mutated to serines (C208 is not in the truncated chain); source: Expi293, transfected, purified; not shown: FLAG, N-terminal, kept
As to B1, the binding result with Cys∗ΔC1Q ERFE (human) is reported as “no binding”.

B2: N-terminally flag-tagged hERFE (residues 44–354), WT erythroferrone (natural protein, human, UniProt Q4G0M1 44-354, looked up)
chain: PPPGNELPRGPGESRAGPAARPPEPTAERAHSVDPRDAWMLFVRQSDKGVNGKKRSRGKAKKLKFGLPGPPGPPGPQGPPGPIIPPEALLKEFQLLLKGAVRQRERAEPEPCTCGPAGPVAASLAPVSATAGEDDDDVVGDVLALLAAPLAPGPRAPRVEAAFLCRLRRDALVERRALHELGVYYLPDAEGAFRRGPGLNLTSGQYRAPVAGFYALAATLHVALGEPPRRGPPRPRDHLRLLICIQSRCQRNASLEAIMGLESSSELFTISVNGVLYLQMGQWTSVFLDNASGCSLTVRSGSHFSAVLLGV
notes: erythroferrone (ERFE, FAM132B), human, residues 44-354; By AUC a mixture of trimer, hexamer and a little high molecular weight species; also called WT ERFE; N-Flag ERFE; not shown: FLAG, N-terminal, kept
Turning to B2, the binding entry with BMP6 is given as “binds”; in experiment [1], “no binding (tested: 160 nM)”.

B3: W82A ERFE (protein, UniProt Q4G0M1 44-354)
chain: B2 chain with W39A
Consider B3, for which the binding entry with BMP6 was “binds weakly”.

B4: F85A ERFE (protein, UniProt Q4G0M1 44-354)
chain: B2 chain with F42A
As to B4, in the experiment with BMP6, the binding result is “binds weakly”.

B5: N94A ERFE (natural protein, human, UniProt Q4G0M1 44-354, looked up)
chain: B2 chain with N51A
For B5, the binding result in the experiment with BMP6 is “binds”.

B6: D90A ERFE (natural protein, human, UniProt Q4G0M1 44-354, looked up)
chain: B2 chain with D47A
Regarding B6, the binding entry with BMP6 is “binds”.
